# Some of the results follow.
# B1: NcCVNHO (Neurospora crassa), Q7S6U4 (protein)
# chain: MSFHVTAEDARIEVRDNRTILFARLRREDGEWNDASYELDQIIGNNDGHFQWGGQNFTETAEDIRFHPKEGAAEQPILRARLRDCNGEFHDRDVNLTEIVENVNGEFQAKF
# Legend:
# Experiment in all cases: glycan array binding signal (z-score within array); higher = stronger binding
# Conditions in all cases: glycan notation: IUPAC condensed, linker removed
# [1] = target: Gal(b1-4)GlcNAc(b1-3)[Gal(b1-4)GlcNAc(b1-6)]GalNAc
# Method in brief: (§1)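 Glycan array binding is given as a within-array Z-score, which can be read as non-binding when negative. The arrays, 3228 of them, came from the Consortium for Functional Glycomics database and were retained only where the protein sequence was available. Z-scores were averaged across arrays of the same protein sequence at different concentrations or buffers and across linkers.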
# [2] = target: Gal(b1-4)GlcNAc(b1-3)[GlcNAc(b1-6)]Gal(b1-4)GlcNAc
# Method in brief: as §1
# [3] = target: Gal(b1-4)GlcNAc(b1-6)Gal(b1-4)GlcNAc
# Method in brief: as §1
# [4] = target: Gal(b1-4)GlcNAc(b1-6)Gal(b1-4)GlcNAc(b1-6)GalNAc
# Method in brief: as §1
# [5] = target: Gal(b1-4)GlcNAc(b1-6)GalNAc
# Method in brief: as §1
# [6] = target: Gal(b1-4)GlcNAc(b1-6)[Gal(b1-3)]GalNAc
# Method in brief: as §1
# [7] = target: Gal(b1-4)GlcNAc(b1-6)[Gal(b1-3)]GlcNAc
# Method in brief: as §1
# Gal3S(b1-3)GalNAc = target: Gal3S(b1-3)GalNAc
# Method in brief: as §1
# Gal3S(b1-3)GlcNAc = target: Gal3S(b1-3)GlcNAc
# Method in brief: as §1
# [8] = target: Gal3S(b1-3)[Fuc(a1-4)]GlcNAc
# Method in brief: as §1
# Gal3S(b1-4)Glc = target: Gal3S(b1-4)Glc
# Method in brief: as §1
# Gal3S(b1-4)Glc6S = target: Gal3S(b1-4)Glc6S
# Method in brief: as §1
# Gal3S(b1-4)GlcNAc = target: Gal3S(b1-4)GlcNAc
# Method in brief: as §1
# Gal3S(b1-4)GlcNAc6S = target: Gal3S(b1-4)GlcNAc6S
# Method in brief: as §1
# [9] = target: Gal3S(b1-4)[Fuc(a1-3)]Glc
# Method in brief: as §1
# Gal3S4S(b1-4)GlcNAc = target: Gal3S4S(b1-4)GlcNAc
# Method in brief: as §1
# Gal3S6S(b1-4)GlcNAc = target: Gal3S6S(b1-4)GlcNAc
# Method in brief: as §1
# Gal3S6S(b1-4)GlcNAc6S = target: Gal3S6S(b1-4)GlcNAc6S
# Method in brief: as §1
# Gal4S(b1-4)GlcNAc = target: Gal4S(b1-4)GlcNAc
# Method in brief: as §1
# Gal4S6S(b1-4)GlcNAc = target: Gal4S6S(b1-4)GlcNAc
# Method in brief: as §1
# Gal6S(b1-4)Glc = target: Gal6S(b1-4)Glc
# Method in brief: as §1
# Gal6S(b1-4)Glc6S = target: Gal6S(b1-4)Glc6S
# Method in brief: as §1
# Gal6S(b1-4)GlcNAc = target: Gal6S(b1-4)GlcNAc
# Method in brief: as §1
# Gal6S(b1-4)GlcNAc6S = target: Gal6S(b1-4)GlcNAc6S
# Method in brief: as §1
# GalNAc(a1-3)Gal = target: GalNAc(a1-3)Gal
# Method in brief: as §1
# GalNAc(a1-3)GalNAc = target: GalNAc(a1-3)GalNAc
# Method in brief: as §1
# GalNAc(b1-3)Gal = target: GalNAc(b1-3)Gal
# Method in brief: as §1
# [10] = target: GalNAc(b1-3)Gal(a1-4)Gal(b1-4)GlcNAc
# Method in brief: as §1
# GalNAc(b1-3)GalNAc = target: GalNAc(b1-3)GalNAc
# Method in brief: as §1
# GalNAc(b1-4)GlcNAc = target: GalNAc(b1-4)GlcNAc
# Method in brief: as §1
# Glc(a1-4)Glc = target: Glc(a1-4)Glc
# Method in brief: as §1
# Glc(a1-6)Glc(a1-6)Glc = target: Glc(a1-6)Glc(a1-6)Glc
# Method in brief: as §1
# Glc(b1-4)Glc = target: Glc(b1-4)Glc
# Method in brief: as §1
# Glc(b1-6)Glc = target: Glc(b1-6)Glc
# Method in brief: as §1
# GlcA(b1-3)Gal = target: GlcA(b1-3)Gal
# Method in brief: as §1
# GlcA(b1-3)GlcNAc = target: GlcA(b1-3)GlcNAc
# Method in brief: as §1
# GlcA(b1-6)Gal = target: GlcA(b1-6)Gal
# Method in brief: as §1
# [11] = target: GlcNAc(a1-3)Gal(b1-4)GlcNAc
# Method in brief: as §1
binder,measurement,setting,value
B1,glycan array binding signal (z-score),[1],-0.246
same,glycan array binding signal (z-score),[2],-0.193
same,glycan array binding signal (z-score),[3],-0.195
same,glycan array binding signal (z-score),[4],-0.156
same,glycan array binding signal (z-score),[5],-0.228
same,glycan array binding signal (z-score),[6],-0.196
same,glycan array binding signal (z-score),[7],-0.141
same,glycan array binding signal (z-score),Gal3S(b1-3)GalNAc,-0.239
same,glycan array binding signal (z-score),Gal3S(b1-3)GlcNAc,-0.229
same,glycan array binding signal (z-score),[8],-0.201
same,glycan array binding signal (z-score),Gal3S(b1-4)Glc,-0.183
same,glycan array binding signal (z-score),Gal3S(b1-4)Glc6S,-0.12
same,glycan array binding signal (z-score),Gal3S(b1-4)GlcNAc,-0.216
same,glycan array binding signal (z-score),Gal3S(b1-4)GlcNAc6S,-0.214
same,glycan array binding signal (z-score),[9],-0.193
same,glycan array binding signal (z-score),Gal3S4S(b1-4)GlcNAc,-0.178
same,glycan array binding signal (z-score),Gal3S6S(b1-4)GlcNAc,-0.23
same,glycan array binding signal (z-score),Gal3S6S(b1-4)GlcNAc6S,-0.227
same,glycan array binding signal (z-score),Gal4S(b1-4)GlcNAc,-0.182
same,glycan array binding signal (z-score),Gal4S6S(b1-4)GlcNAc,-0.207
same,glycan array binding signal (z-score),Gal6S(b1-4)Glc,-0.235
same,glycan array binding signal (z-score),Gal6S(b1-4)Glc6S,-0.209
same,glycan array binding signal (z-score),Gal6S(b1-4)GlcNAc,-0.213
same,glycan array binding signal (z-score),Gal6S(b1-4)GlcNAc6S,-0.172
same,glycan array binding signal (z-score),GalNAc(a1-3)Gal,-0.204
same,glycan array binding signal (z-score),GalNAc(a1-3)GalNAc,-0.227
same,glycan array binding signal (z-score),GalNAc(b1-3)Gal,-0.185
same,glycan array binding signal (z-score),[10],1.19
same,glycan array binding signal (z-score),GalNAc(b1-3)GalNAc,-0.25
same,glycan array binding signal (z-score),GalNAc(b1-4)GlcNAc,-0.226
same,glycan array binding signal (z-score),Glc(a1-4)Glc,-0.185
same,glycan array binding signal (z-score),Glc(a1-6)Glc(a1-6)Glc,2.37
same,glycan array binding signal (z-score),Glc(b1-4)Glc,1.17
same,glycan array binding signal (z-score),Glc(b1-6)Glc,3.02
same,glycan array binding signal (z-score),GlcA(b1-3)Gal,-0.235
same,glycan array binding signal (z-score),GlcA(b1-3)GlcNAc,-0.187
same,glycan array binding signal (z-score),GlcA(b1-6)Gal,-0.222
same,glycan array binding signal (z-score),[11],-0.213
